Assay results: patent publication US20250214977A1, “STAT6 INHIBITORS AND USES THEREOF” (Kymera Therapeutics, Inc., priority 2024, published 2025)

molecular target: T1, biotinylated truncated STAT6 (123-632)-avi (Homo sapiens, UniProt P42226); assay: Homogenous Time-Resolved Fluorescence (HTRF) binding assay; conditions: 0.15 nM biotinylated truncated STAT6 (123-632)-avi, 20 nM fluorescein-labeled probe, 30 minutes at room temperature
T1 sequence (P42226 123-632 limits assumed): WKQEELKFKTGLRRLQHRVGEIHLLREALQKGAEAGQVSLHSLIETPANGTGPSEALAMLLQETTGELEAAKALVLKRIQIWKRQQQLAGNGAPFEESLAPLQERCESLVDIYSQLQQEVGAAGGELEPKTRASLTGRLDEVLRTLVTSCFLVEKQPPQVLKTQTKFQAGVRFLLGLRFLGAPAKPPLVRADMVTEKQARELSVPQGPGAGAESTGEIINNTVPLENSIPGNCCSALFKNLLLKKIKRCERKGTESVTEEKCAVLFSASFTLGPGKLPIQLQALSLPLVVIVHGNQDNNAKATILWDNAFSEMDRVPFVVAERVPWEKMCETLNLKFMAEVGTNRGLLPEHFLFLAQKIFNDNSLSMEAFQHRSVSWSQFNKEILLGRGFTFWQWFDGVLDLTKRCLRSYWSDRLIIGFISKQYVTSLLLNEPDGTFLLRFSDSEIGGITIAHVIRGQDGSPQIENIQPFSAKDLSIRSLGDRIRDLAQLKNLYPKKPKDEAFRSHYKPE

| SMILES | IC50 |
| --- | --- |
| CN(C)C(=O)c1cc2cc(C3=CCCN(C(=O)Cc4cnccn4)C3)ccc2o1 [Example I-246] | 10 to 100 µM |
| CN(C)C(=O)c1cc2cc(C3=CCCN(C(=O)Cc4ncccn4)C3)ccc2o1 [Example I-249] | 10 to 100 µM |
| CN(C)C(=O)c1cc2cc(C3=CCCN(C(=O)CCc4cn5ccccc5n4)C3)ccc2o1 [Example I-251] | 10 to 100 µM |
| CC(=O)NCc1ccc(CC(=O)N2CCC=C(c3ccc4oc(C(=O)N(C)C)cc4c3)C2)cc1 [Example I-252] | 1 to 10 µM |
| CN(C)C(=O)c1cc2cc(C3=CCCN(C(=O)Cn4nnc5ccccc54)C3)ccc2o1 [Example I-254] | 10 to 100 µM |
| CN(C)C(=O)c1cc2cc(C3=CCCN(C(=O)CC4CCOCC4)C3)ccc2o1 [Example I-255] | 10 to 100 µM |
| COc1ccc(CC(=O)N2CCC=C(c3ccc4oc(C(=O)N(C)C)cc4c3)C2)cc1C#N [Example I-256] | 10 to 100 µM |
| CN(C)C(=O)c1cc2ccc(C3=CCCN(C(=O)Cc4cccnc4O)C3)cc2[nH]1 [Example I-257] | 10 to 100 µM |
| CN(C)C(=O)c1cc2cc(C3=CCCN(C(=O)Cc4ccc5c(c4)CN(C(=O)OC(C)(C)C)CC5)C3)ccc2o1 [Example I-259] | 10 to 100 µM |
| CN(C)C(=O)c1cc2cc(C3=CCCN(C(=O)Cn4cccn4)C3)ccc2o1 [Example I-261] | 10 to 100 µM |
| CN(C)C(=O)c1cc2cc(C3=CCCN(C(=O)Cc4ccccn4)C3)ccc2o1 [Example I-263] | 10 to 100 µM |
| CN(C)C(=O)c1cc2cc(C3=CCCN(C(=O)CCn4ccc5ccccc54)C3)ccc2o1 [Example I-264] | 10 to 100 µM |
| CN(C)C(=O)c1cc2cc(C3=CCCN(C(=O)CCn4cnc5ccccc54)C3)ccc2o1 [Example I-265] | 10 to 100 µM |
| CN(C)C(=O)c1cc2cc(C3=CCCN(C(=O)CCc4ccc5ccccc5c4)C3)ccc2o1 [Example I-266] | 10 to 100 µM |
| CN(C)C(=O)c1cc2cc(C3=CCCN(C(=O)CCc4nc5ccccc5[nH]4)C3)ccc2o1 [Example I-267] | 1 to 10 µM |
| CN(C)C(=O)c1cc2cc(C3=CCCN(C(=O)CCc4ccccn4)C3)ccc2o1 [Example I-268] | 1 to 10 µM |
| CN(C)C(=O)c1cc2ccc(C3=CCCN(C(=O)CCn4ccnn4)C3)cc2s1 [Example I-269] | 0.1 to 1 µM |
| CN(C)C(=O)c1cc2cc(C3=CCCN(C(=O)Cc4ccncn4)C3)ccc2o1 [Example I-270] | 10 to 100 µM |
| CN(C)C(=O)c1cc2cc(C3=CCCN(C(=O)Cc4coc5ccccc45)C3)ccc2o1 [Example I-271] | 10 to 100 µM |
| CN(C)C(=O)c1cc2cc(C3=CCCN(C(=O)Cc4ccc5ncccc5c4)C3)ccc2o1 [Example I-273] | 10 to 100 µM |
| CN(C)C(=O)c1cc2cc(C3=CCCN(C(=O)Cn4ccc5ccccc54)C3)ccc2o1 [Example I-274] | 10 to 100 µM |
| CN(C)C(=O)c1cc2cc(C3=CCCN(C(=O)Cc4cccnc4)C3)ccc2o1 [Example I-275] | 10 to 100 µM |
| CN(C)C(=O)c1cc2cc(C3=CCCN(C(=O)Cc4cnc5ccccn45)C3)ccc2o1 [Example I-276] | 1 to 10 µM |

| SMILES | IC50 |
| --- | --- |
| O=C(CCn1ccnn1)N1CCC=C(c2c[nH]c3cc(-n4ccccc4=O)ccc23)C1 [Example I-277] | 1 to 10 µM |
| O=C(CCn1ccnn1)N1CCC=C(c2ccc3occc3c2)C1 [Example I-278] | 10 to 100 µM |
| CN(C)C(=O)c1cc2cc(C3=CCCN(C(=O)Cc4ccncc4)C3)ccc2o1 [Example I-279] | 10 to 100 µM |
| CN(C)C(=O)c1cc2cc(C3=CCCN(C(=O)CCc4ccc5c(c4)OCCO5)C3)ccc2o1 [Example I-280] | 10 to 100 µM |
| CN(C)C(=O)c1cc2cc(C3=CCCN(C(=O)CCc4ccc5c(c4)OCO5)C3)ccc2o1 [Example I-282] | 10 to 100 µM |
| CN(C)C(=O)c1cc2cc(C3=CCCN(C(=O)Cc4ccccc4)C3)ccc2o1 [Example I-283] | 1 to 10 µM |
| CN(C)C(=O)c1cc2cc(C3=CCCN(C(=O)Cn4ncc5ccccc54)C3)ccc2o1 [Example I-284] | 10 to 100 µM |
| CN(C)C(=O)c1cc2cc(C3=CCCN(C(=O)C4Cc5ccccc5CN4C)C3)ccc2o1 (stereo not drawn) [Example I-285] | 10 to 100 µM |
| CN(C)C(=O)c1cc2cc(C3=CCCN(C(=O)Cc4ccc5ncnn5c4)C3)ccc2o1 [Example I-286] | 10 to 100 µM |
| CC(=O)Nc1ccc(CC(=O)N2CCC=C(c3ccc4oc(C(=O)N(C)C)cc4c3)C2)cc1 [Example I-287] | 1 to 10 µM |
| CN(C)C(=O)c1cc2cc(C3=CCCN(C(=O)CCc4cccc5ccccc45)C3)ccc2o1 [Example I-291] | 10 to 100 µM |
| CN(C)C(=O)c1cc2cc(C3=CCCN(C(=O)Cc4nc5ccccc5o4)C3)ccc2o1 [Example I-292] | 10 to 100 µM |
| CN(C)C(=O)c1cc2cc(C3=CCCN(C(=O)Cc4cncnc4)C3)ccc2o1 [Example I-293] | 10 to 100 µM |
| CN(C)C(=O)c1cc2cc(C3=CCCN(C(=O)Cc4cccc5ccccc45)C3)ccc2o1 [Example I-294] | 10 to 100 µM |
| CN(C)C(=O)c1cc2cc(C3=CCCN(C(=O)Cc4ccc5ccccc5c4)C3)ccc2o1 [Example I-295] | 10 to 100 µM |
| CN(C)C(=O)c1cc2cc(C3=CCCN(C(=O)CN4CCc5ccccc5C4)C3)ccc2o1 [Example I-296] | 10 to 100 µM |
| CN(C)C(=O)c1cc2cc(C3=CCCN(C(=O)Cc4ccc5nccnc5c4)C3)ccc2o1 [Example I-297] | 10 to 100 µM |
| CN(C)C(=O)c1cc2ccc(C3=CCCN(C(=O)CCn4ccnn4)C3)cn2n1 [Example I-298] | 10 to 100 µM |
| CN(C)C(=O)c1cc2cc(C3=CCCN(C(=O)CCc4cccs4)C3)ccc2o1 [Example I-299] | 1 to 10 µM |
| CN(C)C(=O)c1cc2cc(C3=CCCN(C(=O)CCc4c[nH]c5ccccc45)C3)ccc2o1 [Example I-300] | 10 to 100 µM |
| CN(C)C(=O)c1cc2cc(C3=CCCN(C(=O)CCc4cccnc4)C3)ccc2o1 [Example I-301] | 1 to 10 µM |
| CN(C)C(=O)c1cc2cc(C3=CCCN(C(=O)Cc4n[nH]c5ccccc45)C3)ccc2o1 [Example I-302] | 10 to 100 µM |
| CN(C)C(=O)c1cc2ccc(C3=CCCN(C(=O)CCn4ccnn4)C3)c(F)c2[nH]1 [Example I-304] | < 0.1 µM |

| SMILES | IC50 |
| --- | --- |
| CN(C)C(=O)c1cc2cc(C3CCCN(C(=O)CCn4ccnn4)C3)ccc2o1 (stereo not drawn) [Example I-305] | 1 to 10 µM |
| CN(C)C(=O)c1cc2cc(C3=CCCN(C(=O)Cc4ccc5c(c4)OCCO5)C3)ccc2o1 [Example I-306] | 10 to 100 µM |
| O=C(NCCO)c1cc2cc(C3=CCCN(C(=O)CCn4ccnn4)C3)ccc2o1 [Example I-307] | 10 to 100 µM |
| CN(C)C(=O)c1cc2cc(C3=CCCN(C(=O)CCn4ccnn4)C3)ccc2[nH]1 [Example I-308] | 1 to 10 µM |
| CN(C)C(=O)c1cc2cc(C3=CCCN(C(=O)Cc4c[nH]c5ncccc45)C3)ccc2o1 [Example I-309] | 10 to 100 µM |
| CN(C)C(=O)c1cc2cc(C3=CCCN(C(=O)CCn4ccnc4)C3)ccc2o1 [Example I-310] | 1 to 10 µM |
| CN(C)C(=O)c1cc2cc(C3=CCCN(C(=O)Cn4ccnc4)C3)ccc2o1 [Example I-311] | 10 to 100 µM |
| CN(C)C(=O)c1cc2cc(C3=CCCN(C(=O)CCc4ccccc4)C3)ccc2o1 [Example I-312] | 10 to 100 µM |
| CN(C)C(=O)c1cc2cc(C3=CCCN(C(=O)Cn4cncn4)C3)ccc2o1 [Example I-315] | 10 to 100 µM |
| CN(C)C(=O)c1cc2ccc(C3=CCCN(C(=O)Cn4ccccc4=O)C3)cc2[nH]1 [Example I-316] | 1 to 10 µM |
| CN(C)C(=O)c1ccc2c(C3=CCCN(C(=O)CCn4ccnn4)C3)c[nH]c2c1 [Example I-317] | 1 to 10 µM |
| Cc1cn(CCC(=O)N2CCC=C(c3ccc4cc(C(=O)N(C)C)[nH]c4c3)C2)nn1 [Example I-319] | 1 to 10 µM |
| CN(C)C(=O)c1cc2ccc(C3=CCCN(C(=O)C4CC4c4ccn(C)n4)C3)cc2[nH]1 (stereo not drawn) [Example I-321] | 10 to 100 µM |
| CN(C)C(=O)c1cc2ccc(C3=CCCN(C(=O)C4CC4F)C3)cc2[nH]1 (stereo not drawn) [Example I-322] | 10 to 100 µM |
| COc1ccccc1-c1cc(C2=CCCN(C(=O)CCn3ccnn3)C2)c(F)c2[nH]c(C(=O)N3CCN(C4CC4)CC3)cc12 [Example I-325] | < 0.1 µM |
| COc1ccccc1-c1cc(C2=CCCN(C(=O)CCn3ccnn3)C2)c(F)c2[nH]c(C(=O)N3CCN(c4ncccc4OC)CC3)cc12 [Example I-326] | < 0.1 µM |
| CCc1cccnc1N1CCN(C(=O)c2cc3c(-c4ccccc4OC)cc(C4=CCCN(C(=O)CCn5ccnn5)C4)c(F)c3[nH]2)CC1 [Example I-327] | < 0.1 µM |
| COc1ccccc1-c1cc(C2=CCCN(C(=O)CCn3ccnn3)C2)c(F)c2[nH]c(C(=O)N3CCN(c4ncccc4C#N)CC3)cc12 [Example I-328] | < 0.1 µM |
| COc1ccccc1-c1cc(C2=CCCN(C(=O)CCn3ccnn3)C2)c(F)c2[nH]c(C(=O)N3CCN(c4ncccc4C(F)(F)F)CC3)cc12 [Example I-329] | < 0.1 µM |
| COCCOc1cccnc1N1CCN(C(=O)c2cc3c(-c4ccccc4OC)cc(C4=CCCN(C(=O)CCn5ccnn5)C4)c(F)c3[nH]2)CC1 [Example I-330] | < 0.1 µM |
| COc1ccccc1-c1cc(C2=CCCN(C(=O)CCn3ccnn3)C2)c(F)c2[nH]c(C(=O)N3CCN(c4ncccc4OC(C)C)CC3)cc12 [Example I-332] | < 0.1 µM |
| COc1ccccc1-c1cc(C2=CCCN(C(=O)CCn3ccnn3)C2)c(F)c2[nH]c(C(=O)N3CCN(c4ncccc4C(C)C)CC3)cc12 [Example I-333] | < 0.1 µM |
| COc1ccccc1-c1cc(C2=CCCN(C(=O)CCn3ccnn3)C2)c(F)c2[nH]c(C(=O)N3CCN(c4ncccc4Oc4ccccc4)CC3)cc12 [Example I-334] | < 0.1 µM |
